Some of the results follow.
tested on: T1, Caupolican (Caup) homeodomain DNA-binding domain; test: PBM E-score (8-mer, recovered from the published 9-mer minima) (E-score (dimensionless, -0.5 to 0.5)); Drosophila protein; higher = stronger relative binding preference, active = 0.31 or more
T1 sequence: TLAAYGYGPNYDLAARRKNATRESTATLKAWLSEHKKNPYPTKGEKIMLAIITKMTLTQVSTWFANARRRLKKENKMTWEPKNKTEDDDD
How it was run: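 Caup's homeodomain DNA-binding domain (residues 214-303) was produced by in vitro transcription and translation and applied at 100 nM to custom-designed protein binding microarrays. Each value is an enrichment score giving relative binding preference for a short DNA word; higher means stronger. Published 9-mer scores were the minimum of their two constituent 8-mer scores, and the 8-mer values were recovered from those minima. A cutoff of 0.31 marks candidate binding sequences.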

| Sequence | PBM E-score |
| --- | --- |
| CTCCGCCC | inactive: -0.311 |
| CCTTCGTC | inactive: -0.0621 |
| GCAGAGTA | inactive: 0.0006 |
| GAGTATTA | inactive: 0.146 |
| AATAGCGG | inactive: -0.027 |
| AGCGTAGC | inactive: -0.111 |
| GAGATTGC | inactive: -0.125 |
| AAGCTGAC | inactive: -0.0149 |
| CCGGCATC | inactive: -0.155 |
| CCTGTGAC | inactive: 0.0838 |
| ATTGAAGG | inactive: -0.0219 |
| CAAACGGC | inactive: -0.215 |
| AAGAGTAA | inactive: 0.146 |
| AACCGTAT | inactive: -0.00421 |
| ATTCCTCG | inactive: 0.011 |
| CTATAGTC | inactive: 0.0377 |
| CAACACCG | inactive: 0.0695 |
| ATGGGTAA | inactive: 0.0789 |
| GTGGCAAC | inactive: -0.00326 |
| CTTACTCC | inactive: 0.0174 |
| ACTCCCCA | ≥ -0.0709 |
| CGTAATCA | inactive: 0.192 |
| CCGCCCCA | inactive: -0.153 |
| AGTGTCTA | inactive: 0.163 |

| Sequence | PBM E-score |
| --- | --- |
| ACTTCGGA | ≥ 0.0559 |
| AGAAAGCG | inactive: -0.111 |
| CCCTATGC | inactive: -0.0629 |
| AGGCGACT | inactive: -0.195 |
| CCTAAGGA | inactive: -0.0669 |
| TCTCTAAA | inactive: -0.0641 |
| GCGGCGCC | inactive: -0.193 |
| CAACCGAG | inactive: -0.116 |
| ATTGTTCG | inactive: 0.213 |
| GCACGCCA | inactive: -0.261 |
| GCTCGAAA | inactive: -0.135 |
| ATCTCCTG | inactive: 0.0228 |
| CCCACCGC | inactive: -0.257 |
| GACCTCAA | inactive: 0.0301 |
| CAGCGAAG | inactive: -0.0941 |
| CGAACAAA | inactive: 0.157 |
| TATTCGCA | ≥ 0.0752 |
| GTATCGAA | inactive: 0.116 |
| CTTTTCGA | inactive: 0.0578 |
| GCATGGTA | inactive: 0.166 |
| AAAGAACT | inactive: 0.0182 |
| CTTCACGA | inactive: -0.0899 |
| AGTATCGC | inactive: -0.0141 |
| ATTCAGGA | inactive: 0.0111 |

| Sequence | PBM E-score |
| --- | --- |
| ATAGAGGC | inactive: -0.0401 |
| CCATATGA | inactive: -0.0127 |
| ACCATCTC | inactive: -0.0446 |
| CCCTCACA | inactive: -0.0459 |
| TCCAGAGA | inactive: -0.105 |
| CCGATACC | inactive: -0.0961 |
| TCAATAAA | inactive: 0.109 |
| CTTTTGGA | inactive: -0.0829 |
| AGAGGACC | inactive: -0.18 |
| GGTTTTGA | inactive: 0.0383 |
| GGTTCAGA | inactive: -0.0796 |
| AGTGCGAT | inactive: -0.0996 |
| TCTGCCCA | inactive: -0.188 |
| ACCACCGA | inactive: -0.0808 |
| CGACAAAA | inactive: 0.126 |
| CTGGACAA | inactive: 0.124 |
| CAACCCAG | inactive: -0.0708 |
| CGCATTAA | inactive: 0.0572 |
| AACCTTGG | inactive: -0.0417 |
| CCTCCTGC | inactive: -0.184 |
| GCAGAGAC | inactive: -0.18 |
| GAGTACGC | inactive: -0.0783 |
| TTGAGCAA | inactive: 0.0766 |
| AAGCCCCG | inactive: -0.151 |

| Sequence | PBM E-score |
| --- | --- |
| GACTCAGA | inactive: -0.101 |
| AATTTGAC | inactive: 0.131 |
| CAGACCAC | inactive: -0.0536 |
| TACCGAGA | inactive: -0.0256 |
| CCTAGCGA | inactive: -0.173 |
| ATTATAAA | inactive: 0.0925 |
| GAGGTTGA | inactive: -0.0621 |
| ACTGCATC | inactive: 0.0148 |
| CGGTTAAA | inactive: -0.0624 |
| GTGGCCAC | ≥ -0.0189 |
| GACGGTGC | inactive: -0.184 |
| AGCGTTGA | inactive: -0.0449 |
| GAGGCAAA | inactive: -0.0558 |
| AAGACGAG | inactive: 0.0135 |
| ATGTCACG | active: 0.367 |
| CGATGATC | inactive: 0.0274 |
| ACTCGCGG | inactive: -0.178 |
| AGGGAGGC | inactive: -0.266 |
| AAGCCAGT | inactive: -0.0375 |
| AGTCGATG | inactive: 0.0887 |
| TTTATAAA | inactive: 0.00384 |
| ACTGGAAC | inactive: 0.0633 |
| ACGATAAC | inactive: 0.195 |
| ACTACACT | inactive: 0.242 |

| Sequence | PBM E-score |
| --- | --- |
| ATCGCTCG | inactive: -0.0768 |
| AATCCCTG | inactive: -0.0218 |
| GCAGGGTA | inactive: -0.0187 |
| TGGACACA | inactive: 0.199 |
| ATGAGGTG | inactive: 0.0779 |
| CCTTCTAG | inactive: -0.136 |
| CTGTCTGC | inactive: -0.053 |
| AGGCTAGA | inactive: -0.142 |
| ACTAGGCT | inactive: -0.0507 |
| CACGCACC | inactive: -0.0151 |
| ACCAGTAC | inactive: 0.116 |
| ACGGTTGG | inactive: -0.0648 |
| CGACCCCA | inactive: -0.195 |
| CTCAACCA | inactive: -0.0732 |
| CGATAGCA | inactive: -0.0109 |
| CTCATCAA | inactive: 0.0222 |
| GATATAGA | inactive: 0.0663 |
| CATACGGC | inactive: -0.0538 |
| AGGGCGCC | inactive: -0.263 |
| ATTCGCTA | inactive: 0.0651 |
| AATCATCC | inactive: 0.0542 |
| AAACCGTA | inactive: -0.00995 |
| CAGGCTTA | inactive: -0.128 |
| TCCGTAGA | inactive: -0.0927 |

| Sequence | PBM E-score |
| --- | --- |
| TAAACCTA | inactive: 0.104 |
| AGCGAACC | inactive: -0.0416 |
| AGGTCACT | inactive: -0.0981 |
| ACGGTAGG | inactive: -0.165 |
| AGTGGAAC | inactive: -0.00196 |
| CTGGGTAC | inactive: -0.0716 |
| CGGCATTA | inactive: -0.0155 |
| CCCAGCGG | inactive: -0.214 |
| ATTGGGCC | inactive: -0.12 |
| AACCACGG | inactive: -0.0658 |
| ATATAATC | inactive: 0.19 |
| GCATGGCC | inactive: -0.134 |
| TCGTACGA | ≥ 0.14 |
| GCCTTCCC | inactive: -0.233 |
| CGAACACC | inactive: 0.12 |
| CATAGTTC | inactive: 0.044 |
| CAATGGGG | inactive: -0.17 |
| CTGGGGGA | inactive: -0.298 |
| CCGCTCTA | inactive: -0.0386 |
| AGGAGGAC | inactive: -0.0909 |
| AACAAAAT | inactive: 0.209 |

— the supplement of paper PMC3724861
